# Measured values as given in the supplement of paper PMC8728848.
# Some of the results follow.
# B1: ABA (Agaricus bisporus), Q00022 (protein)
# chain: MTYTISIRVYQTTPKGFFRPVERTNWKYANGGTWDEVRGEYVLTMGGSGTSGSLRFVSSDTDESFVATFGVHNYKRWCDIVTNLTNEQTALVINQEYYGVPIRDQARENQLTSYNVANAKGRRFAIEYTVTEGDNLKANLIIG
# Key:
# Test in all cases: glycan array binding signal (z-score within array); higher = stronger binding
# Settings in all cases: glycan notation: IUPAC condensed, linker removed
# [1] = target: Gal(b1-4)GlcNAc(b1-2)Man(a1-3)[Gal(b1-4)GlcNAc(b1-2)Man(a1-6)][GlcNAc(b1-4)]Man(b1-4)GlcNAc(b1-4)[Fuc(a1-6)]GlcNAc
# In short: (§1)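 The binding signal is a Z-score computed within each array and averaged over linkers. Arrays of the same protein sequence at different concentrations or buffers were also averaged together. Data originate from 3228 arrays in the Consortium for Functional Glycomics database, kept only where the protein sequence was available.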
# [2] = target: Gal(b1-4)GlcNAc(b1-2)Man(a1-3)[GlcNAc(b1-2)Man(a1-6)]Man(b1-4)GlcNAc(b1-4)GlcNAc
# In short: as §1
# [3] = target: Gal(b1-4)GlcNAc(b1-2)Man(a1-3)[GlcNAc(b1-4)][Gal(b1-4)GlcNAc(b1-2)Man(a1-6)]Man(b1-4)GlcNAc(b1-4)GlcNAc
# In short: as §1
# [4] = target: Gal(b1-4)GlcNAc(b1-2)Man(a1-3)[Man(a1-6)]Man(b1-4)GlcNAc(b1-4)GlcNAc
# In short: as §1
# [5] = target: Gal(b1-4)GlcNAc(b1-2)Man(a1-6)Man(b1-4)GlcNAc(b1-4)GlcNAc
# In short: as §1
# [6] = target: Gal(b1-4)GlcNAc(b1-2)Man(a1-6)[GlcNAc(b1-2)Man(a1-3)]Man(b1-4)GlcNAc(b1-4)GlcNAc
# In short: as §1
# [7] = target: Gal(b1-4)GlcNAc(b1-2)Man(a1-6)[Man(a1-3)]Man(b1-4)GlcNAc(b1-4)GlcNAc
# In short: as §1
# [8] = target: Gal(b1-4)GlcNAc(b1-2)[Gal(b1-4)GlcNAc(b1-4)]Man(a1-3)[Gal(b1-4)GlcNAc(b1-2)Man(a1-6)]Man(b1-4)GlcNAc(b1-4)GlcNAc
# In short: as §1
# [9] = target: Gal(b1-4)GlcNAc(b1-2)[Gal(b1-4)GlcNAc(b1-4)]Man(a1-3)[Gal(b1-4)GlcNAc(b1-2)[Gal(b1-4)GlcNAc(b1-6)]Man(a1-6)]Man(b1-4)GlcNAc(b1-4)GlcNAc
# In short: as §1
# [10] = target: Gal(b1-4)GlcNAc(b1-2)[Gal(b1-4)GlcNAc(b1-4)]Man(a1-3)[GlcNAc(b1-4)][Gal(b1-4)GlcNAc(b1-2)Man(a1-6)]Man(b1-4)GlcNAc(b1-4)GlcNAc
# In short: as §1
# [11] = target: Gal(b1-4)GlcNAc(b1-2)[Gal(b1-4)GlcNAc(b1-4)]Man(a1-3)[GlcNAc(b1-4)][Gal(b1-4)GlcNAc(b1-2)[Gal(b1-4)GlcNAc(b1-6)]Man(a1-6)]Man(b1-4)GlcNAc(b1-4)GlcNAc
# In short: as §1
# [12] = target: Gal(b1-4)GlcNAc(b1-2)[Gal(b1-4)GlcNAc(b1-6)]Man(a1-6)[Gal(b1-4)GlcNAc(b1-2)Man(a1-3)]Man(b1-4)GlcNAc(b1-4)GlcNAc
# In short: as §1
# [13] = target: Gal(b1-4)GlcNAc(b1-2)[Gal(b1-4)GlcNAc(b1-6)]Man(a1-6)[Gal(b1-4)GlcNAc(b1-2)Man(a1-3)]Man(b1-4)GlcNAc(b1-4)[Fuc(a1-6)]GlcNAc
# In short: as §1
# [14] = target: Gal(b1-4)GlcNAc(b1-2)[Gal(b1-4)GlcNAc(b1-6)]Man(a1-6)[GlcNAc(b1-4)][Gal(b1-4)GlcNAc(b1-2)Man(a1-3)]Man(b1-4)GlcNAc(b1-4)GlcNAc
# In short: as §1
# [15] = target: Gal(b1-4)GlcNAc(b1-2)[Gal(b1-4)GlcNAc(b1-6)]Man(a1-6)[GlcNAc(b1-4)][Gal(b1-4)GlcNAc(b1-2)[Gal(b1-4)GlcNAc(b1-4)]Man(a1-3)]Man(b1-4)GlcNAc(b1-4)[Fuc(a1-6)]GlcNAc
# In short: as §1
# [16] = target: Gal(b1-4)GlcNAc(b1-3)Gal(b1-3)GalNAc
# In short: as §1
# [17] = target: Gal(b1-4)GlcNAc(b1-3)Gal(b1-3)GlcNAc
# In short: as §1
# [18] = target: Gal(b1-4)GlcNAc(b1-3)Gal(b1-4)Glc
# In short: as §1
# [19] = target: Gal(b1-4)GlcNAc(b1-3)Gal(b1-4)GlcNAc
# In short: as §1
# [20] = target: Gal(b1-4)GlcNAc(b1-3)Gal(b1-4)GlcNAc(b1-2)Man(a1-3)[Gal(b1-4)GlcNAc(b1-3)Gal(b1-4)GlcNAc(b1-2)Man(a1-6)]Man(b1-4)GlcNAc(b1-4)GlcNAc
# In short: as §1
# [21] = target: Gal(b1-4)GlcNAc(b1-3)Gal(b1-4)GlcNAc(b1-2)Man(a1-3)[Gal(b1-4)GlcNAc(b1-3)Gal(b1-4)GlcNAc(b1-2)Man(a1-6)]Man(b1-4)GlcNAc(b1-4)[Fuc(a1-6)]GlcNAc
# In short: as §1
# [22] = target: Gal(b1-4)GlcNAc(b1-3)Gal(b1-4)GlcNAc(b1-2)[Gal(b1-4)GlcNAc(b1-3)Gal(b1-4)GlcNAc(b1-6)]Man(a1-6)[Gal(b1-4)GlcNAc(b1-3)Gal(b1-4)GlcNAc(b1-2)Man(a1-3)]Man(b1-4)GlcNAc(b1-4)GlcNAc
# In short: as §1
binder,measurement,setting,value
B1,glycan array binding signal (z-score),[1],-0.279
same,glycan array binding signal (z-score),[2],1.03
same,glycan array binding signal (z-score),[3],-0.224
same,glycan array binding signal (z-score),[4],-0.26
same,glycan array binding signal (z-score),[5],-0.21
same,glycan array binding signal (z-score),[6],2.81
same,glycan array binding signal (z-score),[7],-0.241
same,glycan array binding signal (z-score),[8],-0.248
same,glycan array binding signal (z-score),[9],-0.269
same,glycan array binding signal (z-score),[10],-0.25
same,glycan array binding signal (z-score),[11],-0.241
same,glycan array binding signal (z-score),[12],-0.037
same,glycan array binding signal (z-score),[13],-0.241
same,glycan array binding signal (z-score),[14],-0.226
same,glycan array binding signal (z-score),[15],-0.207
same,glycan array binding signal (z-score),[16],0.026
same,glycan array binding signal (z-score),[17],-0.238
same,glycan array binding signal (z-score),[18],-0.194
same,glycan array binding signal (z-score),[19],-0.235
same,glycan array binding signal (z-score),[20],2.52
same,glycan array binding signal (z-score),[21],-0.173
same,glycan array binding signal (z-score),[22],-0.136
